Laboratory results: article PMC5038302 (Antimicrobial Agents and Chemotherapy, 2016)

Tested on: SPM-1
Format: biochemical
Details: 80 μM di-Zn(II)-SPM-1, 4 mM avibactam, Tris-D11 50 mM pH 7.5, 24 h
Protocol: Typical experimental parameters for Carr-Purcell-Meiboom-Gill (CPMG) NMR spectroscopy were the following: total echo time, 40 ms; relaxation delay, 2 s; and number of transients, 264 ([31]). The PROJECT-CPMG sequence (90°x-[τ-180°y-τ-90°y-τ-180°y-τ]n-acq) was applied. Water suppression was achieved by presaturation. Prior to Fourier transformation, the data were multiplied with an exponential function with 3-Hz line broadening.

NC(=O)[C@@H]1CC[C@@H]2CN1C(=O)N2OS(=O)(=O)O [avibactam]
Avibactam hydrolysis observed by NMR: slow [passage A] and hydrolysis is catalyzed slowly [passage B]

For part of its entries the source gives two or more results. This list holds those alone. An entry can have further records. Values that stand side by side seem to repeat one measurement on other runs, samples or individuals. A tag in brackets gives the origin of a value. A, B and so on number the origins entry by entry.
